Here are results for two proteins from article PMC4612375, “Collapse of the native structure caused by a single amino acid exchange in human NAD(P)H:quinone oxidoreductase” (The FEBS journal, 2014).

The series concerns the molecule itself. The experiment in a line: SEC; analytical Superdex-200 10/300 GL, 50 mM Hepes pH 7, 150 mM NaCl; 100 uL of ~300 uM protein injected, 0.5 mL/min; column calibrated with molecular mass standards. In general terms: SEC sorts molecules by how far they enter the pores of the column.

B1: NQO1 P187S (enzyme)
chain: not shown
notes: NAD(P)H:quinone oxidoreductase 1 (NQO1), human, UniProtKB/[…], naturally occurring variant P187S (SNP C609T); made by site-directed mutagenesis of the pET28a construct; in the crystal no density for residues 1-3 (both protomers) and residue 274 (one protomer); also called P187S variant; NQO1*2 gene product; source: E. coli, purified (Ni-NTA HisTrap FF, Superdex 200 SEC)
In the case of B1, the stoichiometry N (as a rule, a count of units in the complex or per binding partner) was 2.

B2: Human NAD(P)H:quinone oxidoreductase 1 (enzyme)
chain: not shown
notes: NAD(P)H:quinone oxidoreductase 1 (NQO1), human, UniProtKB/[…]; gene codon-optimized for E. coli and synthesized, cloned into pET28a (NdeI/XhoI); also called NQO1; WT; source: E. coli, purified (Ni-NTA HisTrap FF, Superdex 200 SEC)
For B2, the “stoichiometry N” value is 2.
